# Data from the supplement of paper PMC4166925.
# ± gives the standard deviation of the averaged measurements. Over roughly 33,000 sequences, “E-score (dimensionless, -0.5 to 0.5)” has its median near -0.046; the highest 2% begin near 0.36. The list shows a part of the results.
# Tested on: T1, SpTbr T-box DNA-binding domain (GST fusion)
# T1 sequence: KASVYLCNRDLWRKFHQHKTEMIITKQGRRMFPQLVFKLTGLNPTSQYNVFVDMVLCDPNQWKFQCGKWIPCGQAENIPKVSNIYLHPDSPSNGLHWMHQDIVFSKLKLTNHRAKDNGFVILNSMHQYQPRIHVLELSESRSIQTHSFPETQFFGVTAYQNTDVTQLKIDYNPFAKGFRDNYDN
# Test: PBM E-score of 8-mer (E-score (dimensionless, -0.5 to 0.5)); Tbr is Tbrain of the sea star Patiria miniata (Pm) or the sea urchin Strongylocentrotus purpuratus (Sp); higher = stronger binding preference; most listed sequences are background and not binding sites
# Details: the construct has about 5 more residues each side
# Outline: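 GST-fused Tbr T-box DNA-binding domains (the whole T-box plus about five flanking residues) were expressed in BL21 E. coli at 20 °C and purified by glutathione affinity chromatography. Universal Agilent oligonucleotide arrays were made double-stranded by primer extension, incubated with 200 nM protein in PBS (pH 7.5), then scanned and quantified. Every ungapped 8-mer was scored from probe intensities. The Universal PBM Analysis Suite gave each word an enrichment E-score, averaged over duplicate arrays.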
row,Sequence,PBM E-score of 8-mer
1,CTCTTCAA,-0.023 ± 0.0061
2,GATTTTCC,-0.00302 ± 0.027
3,AAACTGAC,-0.0478 ± 0.047
4,TCGGTCCA,-0.315 ± 0.033
5,GTACTGTA,-0.2033 ± 0.0011
6,ATGGCGAC,0.0707 ± 0.0012
7,ACTAATAG,0.0429 ± 0.0011
8,AAGCTCCG,-0.224 ± 0.016
9,AGCGAAGA,0.106 ± 0.019
10,AAACACAG,-0.0414 ± 0.022
11,TCGTCAAA,0.168 ± 0.0098
12,CCCGTTAC,-0.0493 ± 0.068
13,CTACGGTA,-0.194 ± 0.07
14,CGGGGTGC,0.233 ± 0.02
15,CCTGCTTA,0.0754 ± 0.039
16,CTGCTGTA,-0.108 ± 0.03
17,GAGATGTA,-0.173 ± 0.009
18,GAAGAAGA,-0.225 ± 0.13
19,AAACTGCT,0.109 ± 0.05
20,ATCCCCTC,-0.0282 ± 0.014
21,CGTACGAA,0.127 ± 0.017
22,CTTGTTAA,0.257 ± 0.053

row,Sequence,PBM E-score of 8-mer
1,AACTGCCT,0.069 ± 0.005
2,AAACTGTC,0.161 ± 0.016
3,AACTGGCG,0.138 ± 0.019
4,CTACCTAG,0.0574 ± 0.051
5,AAGGTAAT,-0.0476 ± 0.02
6,CGAGGGAC,-0.0656 ± 0.053
7,GATGTCGA,0.138 ± 0.021
8,CTAAGCCC,-0.294 ± 0.052
9,AATATTTC,0.0628 ± 0.051
10,AGTTTGCG,0.0593 ± 0.054
11,TAGGAGCA,-0.084 ± 0.065
12,CTGCCCTA,-0.145 ± 0.0092
13,AAGAATGG,-0.127 ± 0.0028
14,CGATCGTA,0.0554 ± 0.032
15,GCAGCCAC,0.126 ± 0.026
16,ATACTCCA,-0.0846 ± 0.1
17,CCCGGTTA,-0.122 ± 0.056
18,ACCCTGTG,0.211 ± 0.031
19,CGAACTCA,0.0559 ± 0.063
20,CAATCTCA,0.128 ± 0.014
21,CGGCCGCA,0.0778 ± 0.042
22,AAACCAGT,-0.222 ± 0.049

row,Sequence,PBM E-score of 8-mer
1,AACTCCAT,0.0047 ± 0.023
2,GCGGTTCC,-0.0655 ± 0.06
3,AAACGCGT,0.0675 ± 0.0019
4,ACGGAATC,-0.021 ± 0.073
5,AAAAGTCG,0.0781 ± 0.0043
6,GTGATTAA,0.221 ± 0.008
7,GATTCTAC,-0.259 ± 0.035
8,GCACGACA,0.0383 ± 0.017
9,TCGAGAGA,-0.0261 ± 0.078
10,CCTTAACC,-0.0815 ± 0.021
11,AATTGACG,0.216 ± 0.0043
12,CGGATACA,-0.16 ± 0.057
13,GATTAGGC,-0.0497 ± 0.073
14,ACGATTAC,0.00732 ± 0.051
15,CATGGCCA,-0.157 ± 0.013
16,CCAGAGCA,-0.2741 ± 0.0017
17,AGATCCTG,-0.231 ± 0.057
18,CAGTACCA,0.0057 ± 0.0043
19,GTTACGCA,-0.114 ± 0.029
20,CCGCATCA,0.0662 ± 0.035
21,CAGTGGAA,-0.24 ± 0.042
22,ATGACACA,0.327 ± 0.033

row,Sequence,PBM E-score of 8-mer
1,CTTCCTCA,0.128 ± 0.054
2,AATTGATA,0.149 ± 0.094
3,ATGATCGC,0.115 ± 0.023
4,CCCCTCTC,-0.208 ± 0.05
5,AGCGGGAA,0.125 ± 0.016
6,CGAGACCA,0.0941 ± 0.029
7,CGTCACAA,0.244 ± 0.0062
8,ATTCGTAA,-0.028 ± 0.068
9,ATCATGTA,-0.14 ± 0.042
10,GATACCGC,0.00598 ± 0.069
11,CAGTTAGA,-0.108 ± 0.07
12,GCCTGAGA,0.00683 ± 0.026
13,AAGAACTC,-0.153 ± 0.023
14,ATGTCATG,-0.098 ± 0.02
15,GCAAGCAC,0.00728 ± 0.027
16,TATACACA,0.0585 ± 0.036
17,ATACGCTG,0.0127 ± 0.13
18,TCCTATCA,-0.0124 ± 0.0011
19,ATTCTATA,-0.18 ± 0.069
20,CATGGGCG,0.145 ± 0.087
